Here are results for 27 compounds from the supplement of paper PMC8821664.

Counter-ions that a name gives are not always drawn. This is one part of the list. Repeats are few or missing, and single values can be far off.
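Note: monoclonal Beas-2B line stably carrying CMV promoter-driven AQP5-HiBiT, 5,000 cells per well in 384-well plates, lytic HiBiT plus LgBiT NanoLuc luminescence, FDA-approved drug library screen.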

In the assay the test system is Beas-2B AQP5-HiBiT reporter cells. Briefly: AQP5-HiBiT luminescence relative to vehicle (ratio to vehicle); higher = higher AQP5-HiBiT protein abundance. The conditions noted are these: 10 µM; 18 h. For orientation: With HiBiT, luminescence reflects the tagged protein that the partner subunit can reach.
For the compound `CN(C)CCC=C1c2ccccc2CCc2ccccc21` [Amitriptyline hydrochloride], the AQP5-HiBiT luminescence is 1.33. On to `CC(=O)CC(c1ccccc1)c1c(O)c2ccccc2oc1=O` (configuration not stated) [Warfarin], for which the AQP5-HiBiT luminescence was determined as 0.674. With `CCc1cc(C(N)=S)ccn1` [Ethinamide], the AQP5-HiBiT luminescence is 1.46. Take `CC(=O)NCCCS(=O)(=O)O` [Acamprosate calcium]: the AQP5-HiBiT luminescence came out at 0.842. With `COCCCC/C(=N\OCCN)c1ccc(C(F)(F)F)cc1` [Fluvoxamine maleate], the AQP5-HiBiT luminescence came out at 1.15. As for `COC(=O)C1=C(C)NC(C)=C(C(=O)OC(C)C)C1c1cccc2nonc12` (configuration not stated) [Isradipine], the AQP5-HiBiT luminescence was determined as 0.557. With `COc1ccc(C(Cl)=C(c2ccc(OC)cc2)c2ccc(OC)cc2)cc1` [Chlorotrianisene], the AQP5-HiBiT luminescence is 0.705.

Take `[I-].[K+]` [Potassium iodide]: the AQP5-HiBiT luminescence stood at 0.987. As to `CN(C)CC/C=C1/c2ccccc2COc2ccc(CC(=O)O)cc21` [Olopatadine hydrochloride], the AQP5-HiBiT luminescence came to 1.1. The result for `C/C=C(/C(=C/C)c1ccc(O)cc1)c1ccc(O)cc1` [Dienestrol] reads 1.28; that for `CN1CCN(C(c2ccccc2)c2ccccc2)CC1` [Cyclizine 2hydrochloride], 1.03; that for `Nc1nc2[nH]cc(CCc3ccc(C(=O)N[C@@H](CCC(=O)O)C(=O)O)cc3)c2c(=O)[nH]1` [Pemetrexed Disodium Hydrate], 1.6. With `CNC(=O)c1ccccc1Sc1ccc2c(/C=C/c3ccccn3)n[nH]c2c1` [Axitinib], the AQP5-HiBiT luminescence was 0.888. In the case of `COc1ccc(-c2ccc3cc(C(=O)O)ccc3c2)cc1C12CC3CC(CC(C3)C1)C2` [Adapalene], the AQP5-HiBiT luminescence was 1.87. Take `C=CC[N+]1([C@H]2C[C@H]3[C@@H]4CC[C@H]5C[C@H](O)[C@@H](N6CCOCC6)C[C@]5(C)[C@H]4CC[C@]3(C)[C@H]2OC(C)=O)CCCC1` [Rocuronium bromide]: the AQP5-HiBiT luminescence is 0.974. Consider `Clc1ccc(COC(Cn2ccnc2)c2ccc(Cl)cc2Cl)cc1` (configuration not stated) [Econazole], for which the AQP5-HiBiT luminescence came out at 0.695. Consider `C[C@H]1c2cccc(O)c2C(=O)C2=C(O)[C@]3(O)C(=O)C(C(N)=O)=C(O)[C@@H](N(C)C)[C@@H]3[C@@H](O)[C@@H]21` [Doxycycline hydrochloride], for which the AQP5-HiBiT luminescence was found to be 0.574. With `N[C@@H]1CONC1=O` [D-Cycloserine], the AQP5-HiBiT luminescence worked out at 1.14.

Turning to `CC(=O)CC(c1ccccc1)c1c(O)c2ccccc2oc1=O` (configuration not stated) [Warfarin sodium], the AQP5-HiBiT luminescence worked out at 0.95.

With `C=CC1=C(C(=O)O)N2C(=O)[C@@H](NC(=O)/C(=N\O)c3csc(N)n3)[C@H]2SC1` [Cefdinir], the AQP5-HiBiT luminescence amounted to 0.814. In the case of `C[C@@H](c1ncncc1F)[C@](O)(Cn1cncn1)c1ccc(F)cc1F` [Voriconazole], the AQP5-HiBiT luminescence was found to be 1.2. As for `CC1(C)CCC(CN2CCN(c3ccc(C(=O)NS(=O)(=O)c4ccc(NCC5CCOCC5)c([N+](=O)[O-])c4)c(Oc4cnc5[nH]ccc5c4)c3)CC2)=C(c2ccc(Cl)cc2)C1`, the AQP5-HiBiT luminescence came out at 0.592.

Regarding `Oc1c(I)cc(Cl)c2cccnc12` [Clioquinol], the AQP5-HiBiT luminescence turned out to be 0.728.

`CO/N=C(\C(=O)N[C@@H]1C(=O)N2C(C(=O)[O-])=C(C[N+]3(C)CCCC3)CS[C@H]12)c1csc(N)n1` [Cefepime Dihydrochloride Monohydrate]: the AQP5-HiBiT luminescence amounted to 1.02.

For `CCCCOc1cc(C(=O)NCCN(CC)CC)c2ccccc2n1` [Dibucaine hydrochloride], the AQP5-HiBiT luminescence is 0.884. `CS(=O)(=O)c1ccc(C2=C(c3ccccc3)C(=O)OC2)cc1` [Rofecoxib]: the AQP5-HiBiT luminescence worked out at 0.712. Turning to `C#C[C@]1(O)CC[C@H]2[C@@H]3CCc4cc(O)ccc4[C@H]3CC[C@@]21C` [Ethynyl estradiol], the AQP5-HiBiT luminescence is 0.905.
